B1: CPEB3 Ribozyme (parent)
chain: UAACAGGGGGCCACAGCAGAAGCGUUCACGUCGCAGCCCCUGUCAGAUUCUGGUGAAUCUGCGAAUUCUGCUGUAUAUCUC

The source gives no read counts; variants with many changes may rest on few reads.

In this data set the parent is B1. Put plainly: self-cleavage, relative activity (ratio to wild type); higher = more cleavage; in vitro, sequencing. In short, it runs like this:
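For each CPEB3 ribozyme variant, relative activity is its cleaved/total read fraction divided by the unmutated ribozyme's. Barcoded error-prone PCR libraries were transcribed by T7 RNA polymerase (5 hours, 37°C) and held in DNase I for 15 min before an EDTA stop, with cleavage occurring throughout. Template-switching reverse transcription and Illumina sequencing were used to read the RNAs. A 5-read minimum applied, and results are the mean of three batches.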
As to U1A A20G U31A G42A U66C U67A, the self-cleavage turned out to be 0.11.
As to U1A A3U U60A, the self-cleavage was determined as 0.65.
With U1A A15U A47U U60A the figure was 0.12; with U1A A3U A13U A45G A65U, 0.31; with U1A A18G U66C U74C U78A, 0.13.
The same measure for U1A A2G G6A A28G A57G: 0.12; for U1A A15U A18G U48A A56U: 0.21.
As to U1A A3C A20U A21G C38U U48A U72C, the self-cleavage turned out to be 0.07.
In the case of U1A A3U A35G A47U A56G U60C U76C, the self-cleavage came out at 0.16.
The same measure for U1A A15U A45G A57G: 0.22.
Regarding U1A A18G A28G U49C, the self-cleavage amounted to 0.27.
The same measure for U1A A2G U58C: 0.21.
In the case of U1A A5G A13G A56G U72C, the self-cleavage was 0.84.
With U1A A20C U41C U67C U72C the figure was 0.25; with U1A A13G A18G U25A U58C U60A A64U, 0.04.
With U1A A3U G6C A21G U41C the figure was 0.1; with U1A A5U U43A U58C G70A U74C, 0.22; with U1A A15G C79U, 1.21.
For the variant U1A A5C A28G A64G, the self-cleavage is 0.63.
As to U1A A18G A35G C39U U43C U49C U51A, the self-cleavage stood at 0.46.
Consider U1A A15G A28G U58A, for which the self-cleavage was 0.29.
The same measure for U1A A5U U31C C39A U49A U51C U60C: 0.12; for U1A A15G C40U: 0.25; for U1A A13G U31C U69A: 0.18.
As for U1A A13G C29U U58A, the self-cleavage was determined as 0.34.
With U1A A18U A20U A28G C81A the figure was 0.26; with U1A A20G A28U A35G A56U U67C, 0.73.
Regarding U1A A2C G46U U80C, the self-cleavage was found to be 0.53.
With U1A A20G A35G A57G the figure was 0.82; with U1A A13G U31C U51G, 0.57; with U1A A18U U41A G46C A65C U66C A77G, 0.04.
As for U1A A15U A18G U48C A64G C68U U78A, the self-cleavage amounted to 0.11.
With U1A A13G G16A A57G U58C A75G A77G the figure was 0.05.
With U1A A15C U26A U58C the figure was 0.23.
On to U1A A18U U49C A56G A64G U78A, for which the self-cleavage turned out to be 0.1.
The same measure for U1A A5U C11G U66C U72A: 0.17; for U1A A13U U25C A28G A47G A57G: 0.09.
On to U1A A5G C27U G61A, for which the self-cleavage turned out to be 0.3.
With U1A A3U C12U A65G the figure was 0.84.
With U1A A2G G8A A15G G42A U49C the figure was 0.05; with U1A A5G A18G C27U U51C C59G, 0.17.
Turning to U1A A5U A65C, the self-cleavage was 0.37.
With U1A A3G U26C U48C U60G the figure was 0.43.
On to U1A A5G U31C U41C U72A U78C, for which the self-cleavage was 0.18.
On to U1A A5G U43C U60C A64G C68A, for which the self-cleavage is 0.06.
Regarding U1A A15G U31C U72A, the self-cleavage turned out to be 0.3.
Take U1A A13U U31C A56G A57G A77U: the self-cleavage turned out to be 0.22.
The same measure for U1A A13G U60C C79U U80C: 0.8; for U1A A15G A21U U54C A64G: 0.44; for U1A A13U U80A: 1.34.
For the variant U1A A15G A28G U31C U48C A56G, the self-cleavage was determined as 0.
For the variant U1A A18U U78C, the self-cleavage amounted to 0.59.
For the variant U1A A5U A45G, the self-cleavage was 0.58.
The same measure for U1A A13U A20G U26C: 0.12.
For the variant U1A A20G A45G A57G U80C, the self-cleavage is 0.24.
U1A A13G A57G U78A: the self-cleavage is 0.18.
Turning to U1A A2G G7U C38U A56G U72A, the self-cleavage turned out to be 0.07.
For the variant U1A A13G C14G U43C, the self-cleavage was found to be 0.46.
As to U1A A20G U54A U66C, the self-cleavage turned out to be 0.16.
The same measure for U1A A5G A15G U66C: 0.41; for U1A A18G U51A U54A U72G U80C: 0.69; for U1A A5G C29U A35U: 0.24.
With U1A A13U U60C A64G G73A U80A the figure was 0.76; with U1A A13U U26G G52C, 0.18.
On to U1A A15G A20G U41A A64G, for which the self-cleavage amounted to 0.08.
Consider U1A A18C A21U A64G U67C U69A, for which the self-cleavage worked out at 0.17.
With U1A A15G A20G U26C U48A A57G U69C, the self-cleavage was 0.07.
On to U1A A3U C4A C40U A64G, for which the self-cleavage was found to be 1.22.
Regarding U1A A2U A20G U31A A35U C39U A45G, the self-cleavage was determined as 0.04.
As for U1A A2G A21G C34U U48C, the self-cleavage came out at 0.11.
As to U1A A2C U67C, the self-cleavage was 0.26.
Regarding U1A A15G U80A, the self-cleavage was determined as 1.14.
With U1A A13U A15G A20G G22A U51A U60A, the self-cleavage came out at 0.2.
The same measure for U1A A13G U54C: 0.85; for U1A A13U G46U U51C A56G U72G: 0.41; for U1A A3G G6U U67G: 0.2.
Consider U1A A2U A13U U49C U72C A77U, for which the self-cleavage turned out to be 0.46.
As for U1A A5G C17G U54A A64G C71G G73A, the self-cleavage is 0.11.
With U1A A3C U76C, the self-cleavage stood at 1.15.
Consider U1A A18G A28G U49C A77U, for which the self-cleavage turned out to be 0.08.
With U1A A18U A45G U54C the figure was 0.12; with U1A A18U A45G A65G, 0.17.
Take U1A A13U A75U: the self-cleavage turned out to be 1.24.
The same measure for U1A A5G U60C U69A: 0.18.
With U1A A20G U31C A45G U69A, the self-cleavage was determined as 0.13.
The same measure for U1A A5G G9A U49C: 0.18; for U1A A2G G6U A18C U54C A65G: 0.24.
For U1A A15C G52U U76C U80C, the self-cleavage turned out to be 1.24.
For the variant U1A A3C U26C, the self-cleavage was determined as 0.97.
With U1A A13G C29U the figure was 0.3.
In the case of U1A A5U U25C U26C U72C, the self-cleavage came out at 0.09.
In the case of U1A A5C A18G U54A A65G U78C, the self-cleavage worked out at 0.22.
In the case of U1A A2C A28U U31C A45G, the self-cleavage is 0.82.
With U1A A5G G30C A57G the figure was 0.1; with U1A A18G A35G U67C U74C, 0.16.
Take U1A A18G U72C: the self-cleavage is 0.15.
With U1A A18G C34U U41C U43A U67C the figure was 0.07; with U1A A5G U74C, 1.02.
On to U1A A3G A45G U51A G70A U78C, for which the self-cleavage amounted to 0.39.
U1A A2G C44U U54A: the self-cleavage turned out to be 0.6.
With U1A A3C U31A U41C A45G U72C the figure was 0.68; with U1A A15G A20G U26C U48A U69C, 0.35.
The same measure for U1A A3U A64G U76C: 1.02; for U1A A5U U26C U80C: 0.8; for U1A A20G A35G U48C U49C: 0.2.
The same measure for U1A A3U U25C U43G U51C: 0.07.
For U1A A3G C29G U49C G55A U72C U78C, the self-cleavage came to 0.14.
The same measure for U1A A18G A20G A28G U80G: 0.33; for U1A A20C U25C A45G A56G: 0.34; for U1A A3C A5C A21C U25C U60C: 0.47.
The same measure for U1A A5U A13G U31C U49C U72C: 0.31; for U1A A20G A47G A65G U67C: 0.15; for U1A A2G G8U A15G A28G U41C: 0.73.
With U1A A5G A28U U41C U54C the figure was 0.5; with U1A A3G U25A U26C G36U U51A U54G, 0.21.
Regarding U1A A2G A13G C23U, the self-cleavage stood at 0.09.
For U1A A15G U31C U43A U49C U72C, the self-cleavage came to 0.44.
With U1A A20G U49C U72C the figure was 0.21; with U1A A15G G42U U67C, 0.15; with U1A A2U C32A, 0.1.
With U1A A13G A15C C32A C37A C44A U80C the figure was 0.06.
With U1A A18U A28U U60C U69A the figure was 0.25; with U1A A2G U43G U48C U49C, 0; with U1A A5U A18G A20U U31A A56U A57G, 0.1.
Consider U1A A2C U41C A47G, for which the self-cleavage was 0.93.
With U1A A2G C11G A18G U43A C44A U74C the figure was 0.14; with U1A A20G A35C U54C, 0.46.
The same measure for U1A A15U A21G C38U C44U G73A: 0.07; for U1A A20G U51A U54G: 0.24; for U1A A3G U31A U51C U74A U76A A77U: 1.17.
The same measure for U1A A20G A28U: 0.62; for U1A A13G A35C A64G: 0.43.
Turning to U1A A3U A21U U26G U41G A65G, the self-cleavage stood at 0.1.
The same measure for U1A A15G A75G: 0.73; for U1A A18U C39U U48C U49G A75U: 0.2; for U1A A18G A47G U49C: 0.44.
With U1A A3G A75G, the self-cleavage was 0.92.
With U1A A13G C44A A56U the figure was 0.14; with U1A A2G C62U, 0.39; with U1A A15G G36C, 0.26.
As to U1A A3G G9A A13U A28U, the self-cleavage stood at 0.15.
In the case of U1A A3G A28G, the self-cleavage came out at 0.98.
The same measure for U1A A3G U43C U51C U58C U72A A77G: 0.14; for U1A A3C A15U G30A U43C U80C: 0.06.
U1A A2G A3G U60A G63A: the self-cleavage came to 0.29.
With U1A A3G A5G C23U U43C U66A the figure was 0.3; with U1A A15G U41C U43C A57G U67C U72C, 0.07.
With U1A A13G C14U A18G A28U A35U U49C the figure was 0.06.
With U1A A15U A47G U54A U58A, the self-cleavage is 0.17.
The same measure for U1A A13U A20G A21G C32U U48C A56U: 0.06.
The same measure for U1A A5U A13U C17G A21U A64G: 0.12.
On to U1A A18U U41C A45U A77G, for which the self-cleavage turned out to be 0.18.
U1A A5G A18U C59G: the self-cleavage was found to be 0.27.
As to U1A A15G U49A A56U, the self-cleavage amounted to 1.03.
On to U1A A13C G19C A20U C39A U67G, for which the self-cleavage was 0.05.
Take U1A A18G A20G A35U C79U: the self-cleavage was found to be 0.35.
For U1A A3C A15G C39U A64G U74C C81U, the self-cleavage was 0.95.
The same measure for U1A A13U U25C: 0.13; for U1A A3C U25C U31C A35G U43C C62U: 0.46; for U1A A15C C27A A56G U67A: 0.22.
With U1A A18U A56U U74C the figure was 0.5; with U1A A15G A64U U72A U80A, 0.15; with U1A A5U C12U C14U, 1.21.
The same measure for U1A A5G U48C C71U: 0.27.
In the case of U1A A2U U25A A28G A35G G36A, the self-cleavage was found to be 0.22.
As to U1A A5U A20U U26C A64U, the self-cleavage was determined as 0.22.
With U1A A20C U26C C40A A64G U72A the figure was 0.12.

Values taken from the RNAGym collection of RNA variant scans (doi:10.1093/nar/gkz1192).
